# Assay results published in the antibiotic and cytotoxicity screens of Wong et al. (2023).
# The list shows a part of the results.
# What was measured:
# [1] = system: HSkMC (human skeletal muscle cells); assay: cytotoxicity call (relative viability < 0.9); conditions: 10 µM
# [2] = system: HepG2; assay: cytotoxicity call (relative viability < 0.9); conditions: 10 µM
# [3] = system: S. aureus RN4220; assay: growth inhibition call (relative growth <= 0.2); conditions: 50 µM
SMILES,cytotoxicity call [1],cytotoxicity call [2],growth inhibition call [3]
C=CCN1C[C@H](C(N)=O)CC1=O,inactive,inactive,inactive
C[C@H]1CN([C@@H](C)CO)C(=O)CCCn2cc(nn2)CO[C@@H]1CN(C)Cc1cccc2c1OCCCO2,inactive,inactive,inactive
C[C@@H]1CN([C@H](C)CO)C(=O)Cc2cc(NC(=O)Nc3cccc4ccccc34)ccc2O[C@H]1CN(C)C(=O)Nc1ccc(F)cc1,inactive,inactive,inactive
CN(C)CC(=O)N[C@H]1CC[C@H](CC(=O)NCCN2CCCCC2)O[C@@H]1CO,inactive,inactive,inactive
CN(C=O)CP(=O)(O)CN1CCCCC1,inactive,inactive,inactive
CCS(=O)(=O)NCC[C@H]1CC[C@H](NS(=O)(=O)c2ccccc2C)[C@@H](CO)O1,inactive,inactive,inactive
Cc1ccc([C@@H]2CC(=O)N[C@@H]2C(N)=O)cc1,inactive,inactive,inactive
COc1ccc(NC(=O)N(C)C[C@H]2Oc3ccc(NC(=O)CCN4CCOCC4)cc3CC(=O)N([C@@H](C)CO)C[C@@H]2C)cc1,inactive,inactive,inactive
C[C@@H]1CN([C@H](C)CO)C(=O)c2cc(C#Cc3ccc(F)cc3)cnc2O[C@@H]1CN(C)Cc1ccccn1,inactive,inactive,inactive
COc1ccc(Nc2ccc(-c3ccncc3)s2)cc1Cl,inactive,inactive,inactive
Cc1cccn2c(=O)c(-c3nn[nH]n3)cnc12,inactive,inactive,inactive
Cc1ccccc1NC(=O)C(C)(C)C,inactive,inactive,inactive
C[C@@H]1CN([C@@H](C)CO)C(=O)Cc2cc(NC(=O)Cc3ccccc3)ccc2O[C@@H]1CN(C)S(C)(=O)=O,inactive,inactive,inactive
COC(=O)C(CCCN1C(=O)c2ccccc2C1=O)(NC(C)=O)c1nn[nH]n1 (configuration not stated),inactive,active,inactive
COc1ccc(S(=O)(=O)Nc2cccc3c2O[C@H](CN(C)C(=O)Nc2cccc4ccccc24)[C@@H](C)CN([C@H](C)CO)C3=O)cc1,inactive,inactive,inactive
CC(C)CC#Cc1ccc2c(c1)O[C@H](CN(C)C(=O)c1ccccn1)[C@H](C)CN([C@@H](C)CO)S2(=O)=O,inactive,inactive,inactive
C[C@@H]1CCCCO[C@H](CN(C)S(=O)(=O)c2ccc(Cl)cc2)[C@@H](C)CN([C@H](C)CO)C(=O)c2cc(NC(=O)Cc3ccccc3)ccc2O1,inactive,active,inactive
C[C@H]1CN([C@@H](C)CO)C(=O)Cc2cc(NC(=O)Nc3ccc4c(c3)OCO4)ccc2O[C@@H]1CN(C)S(=O)(=O)c1cn(C)cn1,inactive,inactive,inactive
COc1ccc(S(=O)(=O)Nc2ccc3c(c2)CC(=O)N([C@H](C)CO)C[C@H](C)[C@@H](CN(C)Cc2ccc(C(=O)O)cc2)O3)cc1,inactive,inactive,inactive
Cc1noc(C)c1NC(=O)Nc1ccc2c(c1)C(=O)N([C@@H](C)CO)C[C@@H](C)[C@H](CN(C)C(=O)Nc1cccc3ccccc13)OCCCC[C@@H](C)O2,active,inactive,inactive
CC(C)NC(=O)Nc1ccc2c(c1)C(=O)N([C@@H](C)CO)C[C@@H](C)[C@@H](CN(C)Cc1ccc(Cl)c(Cl)c1)OCCCC[C@@H](C)O2,inactive,inactive,inactive
C[C@@H]1CN([C@@H](C)CO)C(=O)Cc2cc(NS(=O)(=O)c3ccc(F)cc3)ccc2O[C@@H]1CN(C)Cc1ccc(Oc2ccccc2)cc1,active,active,inactive
C[C@H](CO)N1C[C@H](C)[C@H](CN(C)Cc2ccc(C(=O)Nc3ccccc3N)cc2)Oc2c(NC(=O)Nc3ccccc3)cccc2C1=O,inactive,inactive,inactive
Cc1noc(C)c1S(=O)(=O)Nc1ccc2c(c1)C(=O)N([C@H](C)CO)C[C@H](C)[C@H](CN(C)Cc1ccc(C(F)(F)F)cc1)OCCCC[C@@H](C)O2,inactive,inactive,inactive
O=C(CN1CCOCC1)NCC[C@H]1CC[C@@H](NC(=O)Cc2ccccn2)[C@@H](CO)O1,inactive,inactive,inactive
Cc1ccc(S(=O)(=O)Nc2ccc3c(c2)CC(=O)N([C@H](C)CO)C[C@H](C)[C@@H](CN(C)S(=O)(=O)c2cn(C)cn2)O3)cc1,inactive,inactive,inactive
C[C@@H]1CCCCO[C@H](CN(C)S(=O)(=O)c2ccc(F)cc2)[C@@H](C)CN([C@H](C)CO)C(=O)c2cc(NS(=O)(=O)c3cn(C)cn3)ccc2O1,inactive,inactive,inactive
CN1C2CCCC1CC(NC(=O)c1nn(C)c3ccccc13)C2.Cl (configuration not stated),inactive,inactive,inactive
Cc1noc(C)c1NC(=O)Nc1ccc2c(c1)C(=O)N([C@@H](C)CO)C[C@@H](C)[C@H](CN(C)Cc1ccncc1)OCCCC[C@H](C)O2,inactive,inactive,inactive
